B1: 1-E6-(GGGSG)3-A10*-YY-His6 with A10* = SEQ ID 47 (designed binder)
chain: VDNKFNKENQFADEEIAALPNLNFYQKWAFIRKLMDDPSQSANLLAEAKKLNDAQAPKGGGSGGGGSGGGGSGVDNKFNKEYQQAQQEIRVLPNLNHHQKFAFIQKLIDDPSQSANLLAEAKKLNDAQAPKYYHHHHHH
B2: 1-E6-(GGGSG)3-A10*-YY-His6 with A10* = SEQ ID 57 (designed binder)
chain: B1 chain with Y82F, Q86A, Q87R, K100I, Q105K, K106S, I108L
B3: 1-E6-(GGGSG)3-A10*-YY-His6 with A10* = SEQ ID 44 (designed binder)
chain: B1 chain with Y82F, Q84S, Q87V, V91H, K106S
B4: 1-E6-(GGGSG)3-A10*-YY-His6 with A10* = SEQ ID 54 (designed binder)
chain: B1 chain with Q84E, Q87L, V91N, K100I, Q105N
B5: 1-E6-(GGGSG)3-A10*-YY-His6 with A10* = SEQ ID 50 (designed binder)
chain: B1 chain with Y82F, Q84I, Q87R, V91D, K100I, K106S
B6: 1-E6-(GGGSG)3-A10*-YY-His6 with A10* = SEQ ID 41 (designed binder)
chain: B1 chain with Y82Q, Q84F, V91K, K100R, Q105R, K106S
B7: 1-E6-(GGGSG)3-A10*-YY-His6 with A10* = SEQ ID 39 (designed binder)
chain: B1 chain with Y82I, Q84N, Q87W, V91H, K100T
B8: 1-E6-(GGGSG)3-A10*-YY-His6 with A10* = SEQ ID 45 (designed binder)
chain: B1 chain with Y82K, Q87Y, V91H, K100A
B9: 1-E6-(GGGSG)3-A10*-YY-His6 with A10* = SEQ ID 40 (designed binder)
chain: B1 chain with Y82V, Q84T, Q87W, V91H, Q105R, K106S, I108S
B10: 1-E6-(GGGSG)3-A10*-YY-His6 with A10* = SEQ ID 46 (designed binder)
chain: B1 chain with Q84Y, Q87K, V91T, K100R, Q105K, K106S, I108L
B11: 1-E6-(GGGSG)3-A10*-YY-His6 with A10* = SEQ ID 52 (designed binder)
chain: B1 chain with Y82Q, Q84W, Q87R, V91S, K100V, Q105N, K106S, I108L
B12: 1-E6-(GGGSG)3-A10*-YY-His6 with A10* = SEQ ID 42 (designed binder)
chain: B1 chain with Y82L, Q84A, Q87V, V91K, K100T, Q105K, K106S
B13: H_aBCMA-1-E6_15 aa_aCD16-A10(2a-H10)_His6c_OH (designed binder)
chain: B1 chain with Y82L, Q84S, Q87K, V91A, K100R, Q105N, K106S, I108L
B14: 1-E6-(GGGSG)3-A10*-YY-His6 with A10* = SEQ ID 18 (designed binder)
chain: B1 chain with Y82I, Q84V, Q87S, V91A, K100I, Q105K, I108L
B15: H_aBCMA-1-E6_15 aa_aCD16-A10(2a-A06)_His6c_OH (designed binder)
chain: B1 chain with Y82L, Q84S, Q87W, V91A, P93T, Q105E, K106S, I108R
B16: H_aBCMA-1-E6_15 aa_aCD16-A10(34b-C3-2)_His6c_OH (designed binder)
chain: B1 chain with Y82I, Q84H, Q87W, V91H, K100Q, Q105K, K106S
B17: H_aBCMA-1-E6_15 aa_aCD16-A10(2a-E06)_His6c_OH (designed binder)
chain: B1 chain with Y82L, Q84Y, Q87K, V91R, K100V, Q105N
B18: 1-E6-(GGGSG)3-A10*-YY-His6 with A10* = SEQ ID 29 (designed binder)
chain: B1 chain with Y82L, Q84A, Q87K, V91T, K100V, Q105N

Experimental findings from US20250333445A1 (ONCOPEPTIDES INNOVATION 1, published 2025) are described below.

Numbering of substitutions follows the chain as printed.

In the first experiment the target is T1, CD16b NA1 (human, UniProt O75015).
T1 construct: also called CD16b (NA1 form)
The experiment is described as follows: SPR, 1-E6-(GGGSG)3-A10*-YY-His6 fusion; CD16b set-up not described [f]. In general terms: SPR reads the build-up and loss of mass on a sensor chip optically.
Broadly, the Kd is the constant that tells how readily two partners part at equilibrium. Read a high Kd as a looser complex. B1 displayed a Kd of 588 nM. That is a sub-micromolar value.

As for B2, the Kd was 251 nM.

Molecule B3 returned a Kd of 195 nM. This Kd and that of the molecule before are within 1.5-fold of each other.

As to B4, the Kd stood at 240 nM.

As for B5, binding was characterised by a dissociation constant (Kd) of 177 nM.

B6 yielded a Kd of 135 nM.

On to B7, for which the affinity, expressed as Kd, was 87 nM.

With B8, the Kd is 213 nM.

Molecule B9 registered an equilibrium dissociation constant (Kd) of 82 nM.

In turn, B10 returned a Kd of 101 nM.

As to B11, binding was characterised by a dissociation constant (Kd) of 54 nM. Against the preceding molecule, the Kd is about 1.9-fold lower.

For B12, the Kd turned out to be 92 nM.

The target in a further experiment is T2, CD16b NA2 (human, UniProt O75015).
T2 construct: also called CD16b (NA2 form)
The experiment is described as above.
B1 came in with a Kd of 2140 nM.

In the case of B2, binding was put at a Kd of 554 nM.

The molecule B3 returned a dissociation constant (Kd) of 593 nM.

With B4, the Kd was 663 nM.

On to B5, for which the Kd came to 618 nM.

On to B6, for which binding was characterised by a dissociation constant (Kd) of 455 nM.

In turn, B7 had a Kd of 230 nM.

With B8, the Kd was found to be 214 nM.

Regarding B9, the Kd was 267 nM.

In turn, B10 had a Kd of 397 nM. This Kd and that of the molecule before are within 1.5-fold of each other.

In turn, B11 had a Kd of 278 nM.

For B12, the Kd is 228 nM.

Another experiment addresses T3, hCD16a F158 (Cat. no. CDA-H5220, Acro Biosystems) (human, UniProt P08637 17-208).
T3 construct: also called human CD16a F158; hCD16a F158 allotype
The experiment is described as follows: SPR, 1-E6-(GGGSG)3-A10*-YY-His6 fusion over immobilised receptor [f].
As usually defined, the koff is a measure of how fast the partners let go of each other. For orientation: kon means the rate constant with which the complex forms. Turning to B1, the Kd came out at 2840 nM, the koff came to 0.026 s⁻¹ and the kon is 9200 M⁻¹ s⁻¹.

With B2, the affinity, expressed as Kd, was 472 nM; the koff turned out to be 11 s⁻¹; the kon came to 2.3e+07 M⁻¹ s⁻¹.

B3 showed a Kd of 438 nM, a koff of 4.5 s⁻¹ and a kon of 1e+07 M⁻¹ s⁻¹.

For the molecule B4, binding was put at a Kd of 486 nM, the koff was 0.14 s⁻¹ and the kon was determined as 290000 M⁻¹ s⁻¹.

Take B5: binding was put at a Kd of 614 nM, the koff was 4.9 s⁻¹ and the kon amounted to 8e+06 M⁻¹ s⁻¹.

On to B6, for which the dissociation constant Kd is 393 nM, the koff was 140 s⁻¹ and the kon amounted to 3.6e+08 M⁻¹ s⁻¹.

Consider B7, for which the Kd was determined as 153 nM, the koff was 0.03 s⁻¹ and the kon came out at 200000 M⁻¹ s⁻¹.

B9 gave a Kd of 126 nM, a koff of 0.1 s⁻¹ and a kon of 810000 M⁻¹ s⁻¹.

As to B10, the Kd amounted to 224 nM, the koff turned out to be 6.2 s⁻¹ and the kon was found to be 2.8e+07 M⁻¹ s⁻¹.

With B11, binding was characterised by a dissociation constant (Kd) of 186 nM, the koff was 0.037 s⁻¹ and the kon amounted to 200000 M⁻¹ s⁻¹.

The molecule B12 returned a Kd of 171 nM, a koff of 0.098 s⁻¹ and a kon of 580000 M⁻¹ s⁻¹.

The target of a further experiment is T4, hCD16a V158 (Cat. no. CD8-H52H4, Acro Biosystems) (human, UniProt P08637 17-208).
T4 construct: also called human CD16a V158; hCD16a V158 allotype
Described as above.
Regarding B1, the Kd is 2480 nM.

The molecule B2 registered a Kd of 401 nM.

The molecule B3 displayed a dissociation constant Kd of 373 nM.

B4 had a Kd of 418 nM.

Consider B5, for which the Kd worked out at 515 nM. This Kd and that of the molecule before are within 1.5-fold of each other.

As to B6, the equilibrium dissociation constant (Kd) stood at 312 nM.

B7: binding was characterised by a dissociation constant (Kd) of 136 nM. This Kd lies about 2.3-fold lower than the previous one.

Regarding B8, the Kd came to 96 nM.

The molecule B9 registered a Kd of 111 nM.

As to B10, binding was put at a Kd of 197 nM.

Regarding B11, the Kd came to 163 nM.

Turning to B12, the affinity, expressed as Kd, was 151 nM.

In a further experiment the target is T3, hCD16a F158 (Cat. no. CDA-H5220, Acro …). The experiment is described as follows: SPR (Biacore 8K), serial dilutions over immobilised hCD16a F158, 1:1 Langmuir model.
As to B13, the Kd came out at 72 nM, the koff came to 0.0078 s⁻¹ and the kon amounted to 110000 M⁻¹ s⁻¹.

As for B14, the Kd came out at 149 nM, the koff is 0.015 s⁻¹ and the kon turned out to be 99000 M⁻¹ s⁻¹.

Consider B15, for which the Kd was determined as 125 nM, the koff is 0.01 s⁻¹ and the association rate constant (kon) stood at 83000 M⁻¹ s⁻¹.

As for B16, the Kd was found to be 87 nM, the koff is 0.0062 s⁻¹ and the kon came to 71000 M⁻¹ s⁻¹.

B17 came in with a Kd of 50 nM, an off-rate (koff) of 0.0048 s⁻¹ and a kon of 94000 M⁻¹ s⁻¹.

Regarding B18, the Kd worked out at 66 nM, the koff is 0.0057 s⁻¹ and the association rate constant (kon) amounted to 86000 M⁻¹ s⁻¹.

For another experiment the target is unchanged. The experiment is described as follows: SPR, 1-E6-(GGGSG)3-A10*-YY-His6 fusion over immobilised receptor [c].
B13 registered a dissociation constant (Kd) of 72 nM, a koff of 0.0078 s⁻¹ and a kon of 110000 M⁻¹ s⁻¹.

Turning to B14, the Kd was 149 nM, the koff is 0.015 s⁻¹ and the on-rate (kon) stood at 99000 M⁻¹ s⁻¹.

B15 registered a dissociation constant (Kd) of 125 nM, a koff of 0.01 s⁻¹ and a kon of 83000 M⁻¹ s⁻¹.

B16: binding was put at a Kd of 87 nM, the koff is 0.0062 s⁻¹ and the kon was found to be 71000 M⁻¹ s⁻¹.

In turn, B17 gave a Kd of 50 nM, a koff of 0.0048 s⁻¹ and an association rate constant (kon) of 94000 M⁻¹ s⁻¹.

For B18, the Kd stood at 66 nM, the off-rate constant (koff) was found to be 0.0057 s⁻¹ and the on-rate constant (kon) was 86000 M⁻¹ s⁻¹.

Another experiment has as its target T4, hCD16a V158 (Cat. no. CD8-H52H4, Acro …). Described as above.
In turn, B13 displayed a Kd of 73 nM. In other words, the double-digit nanomolar range.

In the case of B14, the dissociation constant Kd was determined as 155 nM.

B15 displayed a Kd of 123 nM.

For B16, the dissociation constant (Kd) was found to be 85 nM. This Kd and that of the molecule before are within 1.5-fold of each other.

Turning to B17, the affinity, expressed as Kd, was 53 nM.

Take B18: the Kd stood at 67 nM.

For the next experiment, the target named is T1, CD16b NA1. The experiment is described as follows: SPR, 1-E6-(GGGSG)3-A10*-YY-His6 fusion; CD16b set-up not described [c].
B13 returned a Kd of 24 nM.

B14: the Kd was 65 nM.

On to B15, for which the affinity, expressed as Kd, was 79 nM. This Kd and that of the molecule before are within 1.5-fold of each other.

Turning to B16, binding was characterised by a dissociation constant (Kd) of 46 nM.

Molecule B17 gave a Kd of 13 nM.

Molecule B18 displayed a Kd of 19 nM.

Another experiment addresses T2, CD16b NA2. The experiment is described as above.
As to B13, binding was put at a Kd of 145 nM.

The molecule B14 came in with a Kd of 334 nM.

In turn, B15 registered an equilibrium dissociation constant (Kd) of 315 nM.

B16 registered a Kd of 192 nM.

With B17, binding was characterised by a dissociation constant (Kd) of 94 nM.

Consider B18, for which binding was put at a Kd of 135 nM.
